The supplement of paper PMC10037445
Over roughly 2,900 compounds, “IRF Lucia reporter activity, fold change vs agonist alone” has its median near 0.9; the highest 2% begin near 2.8. The list shows a part of the results.

What was measured:
RAW-Dual [1] = experiment: IRF Lucia reporter activity, fold change vs agonist alone; higher = enhanced IRF activity; details: library stock concentration (final ~1000-fold dilution): 10 mM; cytotoxicity flag (confluency mask): not cytotoxic; agonist: MPLA (TLR4) […]
How it was run: (§1)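 RAW-Dual macrophages were seeded in DMEM at 50,000 cells/well in 384-well plates, given 50 nL of library stock by pin tool, and given a PRR agonist 1 h later. Plates were held at 37 °C, 5% CO2 for 20 hours, after which supernatant was read for IRF by QuantiLuc luminescence and for NF-κB by QuantiBlue absorbance at 620 nm. Reporter activity is expressed as fold change over wells that received agonist alone. A well was called cytotoxic when IncuCyte confluency fell below 70% of agonist controls in both mask sets.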

RAW-Dual [2] = experiment: IRF Lucia reporter activity, fold change vs agonist alone; cytotoxicity flag (confluency mask): not cytotoxic; higher = enhanced IRF activity
How it was run: as §1

[3] = agonist: 3'3'-cGAMP (STING) 10 ug/mL

SMILES | IRF Lucia reporter activity (RAW-Dual [1]) | IRF Lucia reporter activity (RAW-Dual [2]; [3]) | IRF Lucia reporter activity (RAW-Dual [2]; agonist: LPS (TLR4) 0.1 ug/mL)
O=C(NO)c1ccc(CC(=O)N(CCO)c2ccccc2)cc1 | 0.969 | – | –
O=C(NO)c1ccc(CC(=O)N(CCO)c2ccccc2)cc1 (library stock concentration (final ~1000-fold dilution): 10 mM) | – | 0.616 | 0.852
Cc1cc(C)nc(NC(=S)N2CCN(Cc3ccc(C(F)(F)F)cc3)CC2)c1 (library stock concentration (final ~1000-fold dilution): 10 mM) | – | 0.622 | 1.15
Cn1c(Nc2ccc(C(F)(F)F)cc2)nc2cc(Oc3ccnc(-c4ncc(C(F)(F)F)[nH]4)c3)ccc21 (library stock concentration (final ~1000-fold dilution): 10 mM) | – | 0.276 | 0.593
Cn1c(Nc2ccc(C(F)(F)F)cc2)nc2cc(Oc3ccnc(-c4ncc(C(F)(F)F)[nH]4)c3)ccc21 | 0.921 | – | –
COC1OC(CO)C(O)C(O)C1O (stereo not given) (library stock concentration (final ~1000-fold dilution): 10 mM) | – | 0.994 | 1.31
COC1OC(CO)C(O)C(O)C1O (stereo not given) | 0.995 | – | –
CC(C)CC(C=O)NC(=O)C(CC(C)C)NC(=O)C(CC(C)C)NC(=O)OCc1ccccc1 (stereo not given) (library stock concentration (final ~1000-fold dilution): 10 mM) | – | 1.03 | 1.41
CC(C)CC(C=O)NC(=O)C(CC(C)C)NC(=O)C(CC(C)C)NC(=O)OCc1ccccc1 (stereo not given) | 1.11 | – | –
NCc1c[nH]c(=S)n1C1CCc2c(F)cc(F)cc2C1 (stereo not given) (library stock concentration (final ~1000-fold dilution): 10 mM) | – | 0.783 | 1.27
NCc1c[nH]c(=S)n1C1CCc2c(F)cc(F)cc2C1 (stereo not given) | 1.05 | – | –
COc1cc2ncnc(Nc3cccc(Cl)c3F)c2cc1OC(=O)N1CCN(C)CC1C (stereo not given) (library stock concentration (final ~1000-fold dilution): 10 mM) | – | 0.804 | 1.17
CC(=O)SCC(Cc1ccccc1)C(=O)NCC(=O)OCc1ccccc1 (stereo not given) (library stock concentration (final ~1000-fold dilution): 10 mM) | – | 1.07 | 0.765
CC(=O)SCC(Cc1ccccc1)C(=O)NCC(=O)OCc1ccccc1 (stereo not given) | 0.853 | – | –
S=C(NCc1ccc2c(c1)OCO2)N1CCN(c2ncnc3c2oc2ccccc23)CC1 (library stock concentration (final ~1000-fold dilution): 10 mM) | – | 0.411 | 0.701
S=C(NCc1ccc2c(c1)OCO2)N1CCN(c2ncnc3c2oc2ccccc23)CC1 | 0.255 | – | –
